Reference: PubChem BioAssay AID900 (National Center for Advancing Translational Sciences (NCATS), 2007)
Hit rate of the full screen: of about 75,000 compounds, about 20 (0.03%) were called active. This list was built around the results that the source calls inconclusive (neither active nor inactive); the mix of calls is not that of the screen. The call rests on the fitted dose curve; in most records, active means well fitted inhibition curve with a large enough effect; inconclusive means small, poorly fitted or top-dose-only effect; inactive means flat fitted curve, though single readings scatter. Potencies of inconclusive entries are left out as doubtful fits.

Target: Caspase-1 (Homo sapiens) (UniProt P29466)
Assay: qHTS Assay for Allosteric/Competitive Inhibitors of Caspase-1;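 on activity change, negative = inhibition: plate controls were vehicle for no effect and no substrate for full effect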
Details: Caspase-1 enzyme, Ac-WEHD-AFC fluorogenic rate; activity change, negative = inhibition: at 57.5 µM (top of the series) unless noted
Potency means the concentration at half of the fitted maximal effect; tags describe the fitted curve by direction and shape or compound fluorescence and quenching.

Compound | Potency | activity change, negative = inhibition
O=C1C2=C(c3ccccc31)[N+](=O)[C@@H]1CCCC[C@@H]1N2[O-] | inconclusive [inhibitor, partial curve] | –
COCCN1CCn2c(nc3cc(NC(=O)NC4CCCCC4)ccc32)C1 | inconclusive [inhibitor, partial curve] | –
COc1ccc2cc(CN(CCc3ccccc3)Cc3nnnn3Cc3ccco3)c(=O)[nH]c2c1 | – | inconclusive: -16% [inhibitor]
Cc1cccc2[nH]c(-c3ccc(NC(=O)c4ccco4)cc3)nc12 | – | inconclusive: -16% [inhibitor]
COc1ccc(Oc2cn[nH]c2-c2ccc(O)cc2O)cc1 | inactive | –
COC(=O)c1c(C)cc(C)n2c1nc1ccccc12 | inconclusive [inhibitor, partial curve] | –
COc1cccc(-c2nnc(Nc3nc4c(F)cccc4s3)o2)c1 | inactive | –
Cc1nc2cnc(N(C)C)nc2n(Cc2cccs2)c1=O | inconclusive [inhibitor, partial curve] | –
C=CCn1c(O)c(CN2CCN(Cc3ccccc3)CC2)c(C)c(C#N)c1=O | – | inconclusive: -16.9% [inhibitor]
Nc1nsnc1C(=O)NCCO | inactive | –
Nc1nc2n(n1)C(c1ccccc1Cl)CC(c1ccc(F)cc1)N2 (stereo unspecified) | – | inconclusive: -15.8% [inhibitor]
CCOC(=O)c1sc(NC(=O)c2cccs2)cc1C | inconclusive [inhibitor, single point] | –
COc1ccc2cc(C(=O)NCc3ccco3)c(=O)oc2c1 | – | inconclusive: -15.3% [inhibitor]
COC(=O)c1c(NC(=O)c2ccc(C)o2)sc2c1CCCCC2 | – | inconclusive: -16% [inhibitor]
CC1=C(C(=O)Nc2cccc(C)n2)C(c2ccc3c(c2)OCO3)C2=C(CC(c3ccco3)CC2=O)N1 (stereo unspecified) | inconclusive [inhibitor, single point] | –
CCS(=O)(=O)N1CCN(C(C)CCc2ccccc2)CC1 (stereo unspecified) | inactive | –
Cc1cc(-c2ccccc2)nc2[n+]1CCN2C | inconclusive [inhibitor, partial curve] | –
O=c1[nH]c2cc3c(cc2cc1CN(CC1CCCO1)S(=O)(=O)c1ccc(Cl)cc1)OCCO3 (stereo unspecified) | inconclusive [inhibitor, single point] | –
O=C(O)c1cc(O)c2c(c1)[C@H]([C@H]1c3cc(C(=O)O)cc(O)c3C(=O)c3c(O[C@@H]4OC(CO)C(O)C(O)C4O)cccc31)c1cccc(O[C@@H]3OC(CO)C(O)C(O)C3O)c1C2=O (stereo partly specified) | active: 25.1 µM | –
CCOc1ccccc1-c1nc(-c2cc3ccccc3nc2OC)no1 | inconclusive [inhibitor, single point] | –
COc1cc(CNc2ccc3[nH]c(=O)[nH]c3c2)ccc1OCC(=O)NC(C)(C)C | inconclusive [inhibitor, single point] | –
Cc1cc(O)ccc1Nc1nc2ccccc2nc1Nc1ccc(O)cc1C | inconclusive [inhibitor, single point] | –
COc1ccc(C2NC3=C(CCC3)C3(C#N)C4(N=C(N)C23C#N)OCCO4)cc1 (stereo unspecified) | – | inconclusive: -16.9% [inhibitor]

Compound | Potency | activity change, negative = inhibition
CCCCN1CCc2c([nH]c3c(C)cccc23)C1=O | inactive | –
CCc1c2c(nc3cccc(C(C)C)c13)-c1cccc(=O)n1C2 | inconclusive [inhibitor, single point] | –
COc1ccc(Oc2ncc3nc(-c4ccccc4)c(=O)n(C4CC4)c3n2)cc1 | inconclusive [inhibitor, partial curve] | –
COC(=O)c1ccc(C#CC(NP(=O)(c2ccccc2)c2ccccc2)c2ccccc2)cc1 (stereo unspecified) | inactive | –
O=C(c1ccco1)N1CCN(C(=O)c2cc3c(s2)-c2ccccc2OC3)CC1 | inconclusive [inhibitor, partial curve] | –
CCCOC(=O)Nc1ccc(S(=O)(=O)Nn2cnnc2)cc1 | – | inconclusive: -17.3% [inhibitor]
O=C1NCCCC2c3cc(O)c4ccccc4c3OC12N1CCCCC1 (stereo unspecified) | active: 31.6 µM | –
CN(C)c1ccc(-c2nccc(Nc3ccc(F)cc3)n2)cc1 | – | inconclusive: -16% [inhibitor]
O=C(O)[C@H]1[C@H]2C[C@H]3c4[nH]c5ccccc5c4CCN3C[C@@H]2CC[C@@H]1O | inconclusive [inhibitor, partial curve] | –
O=S(=O)(O)CCCc1cccc2ccccc12 | – | inactive: -1.2% [at 11.5 µM]
COc1ccc(-c2nnc(SCC(=O)N3CCc4ccccc4C3)o2)cc1 | inactive | –
CCOc1ccc2nc(NS(=O)(=O)c3ccc4c(c3)n(C)c(=O)n4C)sc2c1 | inconclusive [inhibitor, partial curve] | –
Cc1cc(C)n(-c2nc3ccccc3nc2N2CCCCCC2)n1 | inconclusive [inhibitor, partial curve] | –
Cc1ccc2[nH]c3c(c2c1)CN(C(=O)CN1CCN(c2ccccc2F)CC1)CC3 | inconclusive [inhibitor, partial curve] | –
Cc1cc2c(N)cccc2nn1 | – | inconclusive: -17.9% [inhibitor]
N#Cc1c(-c2ccco2)c2c([nH]c1=S)CCCC2 | inconclusive [inhibitor, partial curve] | –
CCCC(=O)Nc1ccc(C(=O)NCC(=O)OCC)cc1 | inconclusive [inhibitor, partial curve] | –
CCCC(=O)Nc1nc2ccc(OC)cc2s1 | inactive | –
COc1cccc(Nc2ncc3ncc(=O)n(C4CC4)c3n2)c1 | – | inconclusive: -16.3% [inhibitor]
Clc1ccc2c(N3CCCC3)ccnc2c1 | inconclusive [inhibitor, partial curve] | –
CSc1ccc2c(c1)N(CCC1CCCCN1C)c1ccccc1S2 (stereo unspecified) | inactive | –
O=c1[nH]c2cc3c(cc2cc1C(c1nnnn1C1CCCC1)N1CCCc2ccccc21)OCCO3 (stereo unspecified) | inconclusive [inhibitor, partial curve] | –
CC1=CC2=C(OC1N(C)C)c1cccc3cccc(c13)C2=O (stereo unspecified) | inconclusive [inhibitor, partial curve] | –
